# The full ranking holds about 33,000 sequences; the median of “E-score (-0.5 to 0.5)” is about -0.053, and the highest 2% start at about 0.37. The list shows a part of the results.
# Molecular target: Hap1 (UniProt P0CE41)
# Test: PBM E-score (8-mer binding enrichment) (E-score (-0.5 to 0.5)); higher = stronger / more preferred TF binding; most listed sequences are background and not binding sites
# Details: protein concentration: 200 nM; construct: GST-DNA-binding domain
# Method in brief: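 Universal all-10-mer Agilent arrays, fresh or stripped once, were converted to double-stranded form by primer extension. GST-tagged yeast transcription factors from PURExpress in vitro transcription/translation, full-length or DNA-binding domain only, were applied at about 100-200 nM and detected with fluorescent anti-GST. After masliner normalisation, the Universal PBM Analysis Suite scored each ungapped eight-base word together with its reverse complement by E-score.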
# Chain of UniProt P0CE41 (P0CE41 whole entry): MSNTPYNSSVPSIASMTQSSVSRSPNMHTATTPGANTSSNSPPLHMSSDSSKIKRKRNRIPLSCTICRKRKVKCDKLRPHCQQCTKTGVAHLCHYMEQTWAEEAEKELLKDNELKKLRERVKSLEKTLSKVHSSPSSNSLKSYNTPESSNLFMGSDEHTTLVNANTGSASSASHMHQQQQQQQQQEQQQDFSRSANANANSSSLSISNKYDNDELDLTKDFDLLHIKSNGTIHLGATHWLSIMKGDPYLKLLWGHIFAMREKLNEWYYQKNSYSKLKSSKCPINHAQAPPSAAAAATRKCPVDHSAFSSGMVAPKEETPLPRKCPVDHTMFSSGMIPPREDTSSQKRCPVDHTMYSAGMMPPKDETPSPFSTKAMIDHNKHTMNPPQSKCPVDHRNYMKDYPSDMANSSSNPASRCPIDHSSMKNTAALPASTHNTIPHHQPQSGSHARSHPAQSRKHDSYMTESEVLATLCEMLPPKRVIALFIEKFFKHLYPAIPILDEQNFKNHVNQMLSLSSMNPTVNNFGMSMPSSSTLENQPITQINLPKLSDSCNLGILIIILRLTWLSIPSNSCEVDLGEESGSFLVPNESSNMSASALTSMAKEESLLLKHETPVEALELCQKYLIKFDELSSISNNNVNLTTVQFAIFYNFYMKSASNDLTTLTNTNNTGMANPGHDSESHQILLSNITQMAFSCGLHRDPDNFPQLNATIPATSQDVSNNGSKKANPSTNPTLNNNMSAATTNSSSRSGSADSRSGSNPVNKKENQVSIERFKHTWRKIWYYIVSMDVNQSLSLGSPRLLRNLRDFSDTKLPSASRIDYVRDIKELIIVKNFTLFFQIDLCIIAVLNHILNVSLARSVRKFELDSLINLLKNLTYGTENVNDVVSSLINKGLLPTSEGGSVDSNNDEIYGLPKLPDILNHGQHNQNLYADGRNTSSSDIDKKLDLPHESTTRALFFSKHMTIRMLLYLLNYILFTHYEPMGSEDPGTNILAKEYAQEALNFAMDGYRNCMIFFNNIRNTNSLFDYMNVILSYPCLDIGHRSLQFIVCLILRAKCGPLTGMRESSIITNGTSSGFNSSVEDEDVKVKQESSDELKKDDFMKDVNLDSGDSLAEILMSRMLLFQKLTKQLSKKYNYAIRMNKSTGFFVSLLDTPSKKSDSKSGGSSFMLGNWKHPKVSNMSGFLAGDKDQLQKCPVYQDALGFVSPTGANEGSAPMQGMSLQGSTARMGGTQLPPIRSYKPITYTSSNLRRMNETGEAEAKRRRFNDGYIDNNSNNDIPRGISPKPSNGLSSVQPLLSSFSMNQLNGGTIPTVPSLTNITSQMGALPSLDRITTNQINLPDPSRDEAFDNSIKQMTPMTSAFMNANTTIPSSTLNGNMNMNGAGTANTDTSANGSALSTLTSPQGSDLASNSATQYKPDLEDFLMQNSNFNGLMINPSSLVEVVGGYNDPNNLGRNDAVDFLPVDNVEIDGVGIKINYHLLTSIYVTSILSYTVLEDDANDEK
row,Sequence,PBM E-score
1,CTCACAAA,-0.0838
2,AATCAATG,-0.0446
3,GGTGCTAA,0.156
4,GTGTGAGA,-0.197
5,AATCTACG,0.0904
6,TAACAATA,-0.0812
7,CAGTGTAC,-0.267
8,CCAACAAC,-0.106
9,AAGCGCCG,0.31
10,GATCTTGA,-0.183
11,GGACGAAA,0.273
12,CCTCTACA,-0.219
13,AAAGTTGA,-0.192
14,ATGTTTGG,-0.111
15,AGGCTCAC,-0.263
16,CTTCGGAA,0.403
17,ATACTTCG,0.108
18,GACCCCCC,-0.13
19,AGCATTTC,-0.0617
20,CACTTAAA,-0.109
21,TAAAAGCA,-0.0225
22,AGAATAAT,-0.212
23,TCTTGGAA,-0.163
24,AGGCCACC,-0.0824
25,CATAATAC,-0.197

row,Sequence,PBM E-score
1,CAGATATG,0.0423
2,ATTCTAGC,-0.151
3,TCAAAGAA,-0.264
4,GTGGGTTA,-0.0914
5,GCCATGCC,0.0116
6,GCATTGGA,-0.0858
7,GAAGGGTA,-0.0884
8,ATACTAAT,0.0383
9,ATGTGGGC,-0.135
10,CATTACGC,0.196
11,ACGGACGG,0.244
12,CGATAGGA,0.307
13,CACAGCTA,-0.154
14,AATCCCAC,0.0469
15,GCTCCAGA,-0.123
16,CCCCAGCC,-0.0737
17,CGTCGCCC,0.00024
18,CAGGTGGG,-0.0119
19,CAAGATAC,-0.12
20,ATAAGCAT,-0.149
21,ATGTATAA,-0.144
22,ATGGAAGA,-0.0903
23,AAGCGATG,-0.0584
24,GGAGATTA,0.31
25,GAAAACAA,-0.0224

row,Sequence,PBM E-score
1,TGGGCCAA,-0.117
2,AGCCGACA,0.133
3,CTATCTCC,0.358
4,CGGTGATC,0.26
5,TGAACGCA,-0.176
6,AATCTTCG,0.0766
7,AATCCTCC,0.106
8,ACGGCTGA,-0.0931
9,CCTTCTTC,-0.12
10,AGCGACAC,-0.0119
11,AACTGTCG,-0.058
12,ATGCAGTG,-0.169
13,AATTCGCT,0.0644
14,AGCGTGAG,-0.268
15,ACCTTCCA,-0.0446
16,AGGGCTTA,-0.203
17,ACGACCTA,-0.107
18,GGACTCCC,0.0888
19,AAATACAG,-0.147
20,GATATGAC,0.194
21,AATGTGGT,-0.0583
22,CGGACTCA,0.347
23,TAACAAGA,-0.0971
24,AATAACCC,0.19
25,CTCTATAC,-0.191

row,Sequence,PBM E-score
1,AGCGCTAA,0.0794
2,AAGTTAAG,-0.0352
3,ATTAGTGG,-0.0345
4,ACCGTTTA,0.138
5,AGACCTAA,-0.227
6,CAATCCCC,0.17
7,TCTAGAAA,-0.18
8,TAATACGA,-0.0705
9,AGTCTACA,-0.195
10,AGGGGGCG,-0.219
11,CAACTGTG,-0.173
12,ATACTCAA,0.00135
13,CATACGAC,-0.15
14,CTCCAACA,-0.111
15,CATTAGGC,-0.143
16,AGTTCAAC,-0.0128
17,CATGCCGA,0.17
18,AGACTAAC,-0.0545
19,ACCGTAAC,0.138
20,AACCAGAT,-0.0104
21,GGGAGTTA,0.247
22,CGGACCAA,0.383
23,CGGGTCTC,0.192
24,TGCTCGAA,-0.127
25,CCCTAAAC,-0.0256

row,Sequence,PBM E-score
1,ATAGAATG,-0.105
2,CGCGAGCA,-0.126
3,GTTTCTGA,0.0004
4,GGCCTGCA,-0.0802
5,ATACTTAG,-0.123
6,AGTTTTCG,0.141
7,GGGGCAAC,-0.0958
8,CCCTCATA,-0.267
9,CTAAACGC,0.109
10,GCATGGGC,-0.157
11,TACCACCA,0.0011
12,ATTTCTGA,-0.255
13,AAGCCCCC,0.104
14,TATAGATA,-0.258
15,CTGGGTCA,-0.057
16,ATTGTAAA,-0.0306
17,ATTCAACG,0.0652
18,ACCTATAC,-0.202
19,ATGGACTC,-0.019
20,TCACGCAA,-0.0399
21,CGTCACTC,0.00776
22,AGGGGCTA,-0.233
23,CGTGCCAA,-0.144
24,AGTGGTGG,-0.273
25,GAGCTGTA,-0.189

row,Sequence,PBM E-score
1,CCCTGTTA,-0.123
2,GGCGGCAC,0.202
3,CATGTGCG,-0.131
4,AAATAAAT,0.159
5,CTGCCGAC,0.133
6,ACATAAAA,-0.188
7,AAATCAGA,-0.113
8,CAACCTGG,-0.172
9,CCCCGGAA,0.272
10,AACAGTGG,-0.019
11,ATCTTTCG,-0.0668
12,CCTACCCC,0.0697
13,GATAGTAC,0.0622
14,ACCAATCA,-0.0506
15,GTCTTTCA,-0.14
16,ACAGACAT,-0.156
17,ACGTTTGC,-0.137
18,TACCATGA,-0.347
19,AGGGCCCG,0.106
20,CTGATAAG,-0.151
21,CCGTCATA,0.189
22,CAATTAGC,-0.0151
23,ACACTTTA,-0.0855
24,ACGTCGAT,-0.111
25,ACTAACTC,0.018

row,Sequence,PBM E-score
1,ACTTGTCT,-0.227
2,ATTCTCCA,-0.157
3,AGACGGGA,-0.134
4,CCCCCACA,-0.227
5,CCACGCCC,0.0955
6,AAGCGGAC,0.265
7,AACCGCTT,-0.0269
8,ATTCGCTG,-0.0586
9,ATCGGGAG,0.192
10,GACCGCGC,0.196
11,CGAGAAAC,0.187
12,ACGGTGAC,-0.112
13,ATCGACAC,-0.179
14,CTTCACAA,-0.207
15,ACAATGAG,-0.167
16,CCACGCTC,-0.156
17,GCGAAGTA,0.174
18,ACCGGGGC,0.291
19,CACGGTGG,-0.0434
20,CCTCAAAG,-0.204
21,AGGGTCGA,0.0991
22,AGCAGTGA,0.0848

# Reference: the supplement of paper PMC3334620
